Laboratory results published in PubChem BioAssay AID1347073 (National Center for Advancing Translational Sciences (NCATS), 2019).
Out of some 45,000 compounds screened, about 200 (0.44%) were called active. Another 7% or so got no clear call; they are omitted. Calls follow the shape of the dose curve; as a rule, active = well fitted activation curve with a large enough effect; inconclusive = small, poorly fitted or top-dose-only effect; inactive = no such curve, though single readings can be large or run the other way. Some of the results follow.

Experiment: qHTS of TDP-43 Inhibitors: NCGC Sytravon Library Screen; also: 0% is about no effect; nearly all actives have a fitted effect of over 55% in size
Conditions: yeast TDP-43 toxicity rescue, BacTiter-Glo growth, 24 h; series mostly up to 46.1 µM; growth rescue (activation): at the top concentration
In short: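 TDP-43-expressing yeast, pregrown in raffinose, seeded at OD600 0.02 in galactose medium with compound for 24 hr at 30 deg C. Growth read by BacTiter-Glo luminescence, so rescue of toxicity appears as activation.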

Row | SMILES | growth rescue (activation)
1 | COc1ccc(C2C(C(C)=O)=C(O)C(=O)N2c2ccccn2)cc1 (stereo not drawn) | inactive: -6.76%
2 | O=C(Cc1ccccc1)Nc1c(C(=O)c2ccccc2)oc2ccccc12 | inactive: 14.8%
3 | Cc1nn(-c2ncc(C(F)(F)F)cc2Cl)c(=O)n1-c1ccccc1Cl | inactive: 46.1%
4 | Cc1cc(=O)[nH]c(SCC(=O)Nc2cc(S(=O)(=O)N(C)C)ccc2Cl)n1 | inactive: 8.58%
5 | O=C(NCCN1C(=O)S/C(=C\c2ccc(F)cc2)C1=O)c1cccc(S(=O)(=O)N2CCOCC2)c1 | inactive: 6.48%
6 | OCc1ccccc1-c1cccc2nccn12 | inactive: 0.979%
7 | COc1ccc(N(CC(=O)NCc2ccc(F)cc2)C(=O)Cn2nnc(-c3ccc(C)o3)n2)cc1OC | inactive: 12.6%
8 | Cc1ccn2cc(-c3cccc(NS(C)(=O)=O)c3)nc2c1 | inactive: -10.3%
9 | Cc1cccc(C)c1NC(=O)COC(=O)c1cccc2c1C(=O)c1ccccc1C2=O | inactive: 1.59%
10 | O=C(CSc1nnc(NC(=O)c2ccco2)s1)NC1CCCC1 | inactive: 15%
11 | CC[n+]1c(S(=O)(=O)[O-])ccc2ccc(C)cc21 | inactive: 29.8%
12 | O=C(Cc1ccccc1)NNC(=S)NC(=O)c1cccnc1 | inactive: 7.3%
13 | Cc1ccc(N(C(=O)c2csnn2)C(C(=O)NC2CCCCC2)c2ccco2)cc1 (stereo not drawn) | inactive: -16%
14 | Cc1cc(NC(=O)C(C)Sc2nc(-c3ccccc3)cc(=O)[nH]2)no1 (stereo not drawn) | inactive: -25.3%
15 | Cc1cc(C)cc(Oc2nc3ccccn3c(=O)c2/C=C(\C#N)C(=O)NC2CCS(=O)(=O)C2)c1 (stereo not drawn) | inactive: 4.34%
16 | CSc1ccc(CNC(=O)C2CCC(=O)N(Cc3cccc(F)c3)C2)cc1 (stereo not drawn) | inactive: 7.46%
17 | CCOC(=O)CNc1nc(Cl)nc(NC(C)(C)C)n1 | inactive: 9.56%
18 | CC(C)NC(=O)c1cc(C2CCCCN2C(=O)c2ccccc2)on1 (stereo not drawn) | inactive: 8.72%
19 | CCCNC(=O)Cn1cnc2sc(C(=O)N3CCN(Cc4ccc5c(c4)OCO5)CC3)c(C)c2c1=O | inactive: -2.47%
20 | N#C/C(=C\c1ccc(-c2ccccc2)cc1)c1nc(-c2ccco2)cs1 | inactive: -0.484%
21 | CCOc1ccc(N(CC(=O)NC2CCCC2)C(=O)CCC(=O)Nc2nc(C)cs2)cc1 | inactive: 1.43%
22 | COCCNC(=O)/C(C#N)=C/c1cn(CC(=O)NCc2ccco2)c2ccccc12 | inactive: 8.4%
23 | Cc1ccc(NC(=O)C[n+]2cc(-c3ccccc3)n3c2CCC3)c(C)c1 | inactive: -2.92%
24 | COc1ccc2cc(C3CC(c4ccco4)=NN3C(=O)CCC(=O)O)c(Cl)nc2c1 (stereo not drawn) | inactive: 1.96%
25 | COc1cc(/C=N/O)cc(Br)c1OC | inactive: 31.1%
26 | CCCNC(=O)Cn1cnc([N+](=O)[O-])n1 | inactive: -0.029%
27 | CC(NC(=O)CSc1nnc(-c2cccc(S(=O)(=O)N3CCCCC3)c2)o1)C12CC3CC(CC(C3)C1)C2 (stereo not drawn) | inactive: 17.1%

Row | SMILES | growth rescue (activation)
28 | COc1cc(/C=C/c2nc(N)nc(-c3ccccc3O)n2)cc(OC)c1OC | inactive: 12.7%
29 | CC1CC1C(=O)OCC(=O)NCc1ccccc1 (stereo not drawn) | inactive: 19.6%
30 | COc1ccc(-c2cn[nH]c2-c2ccc(OCc3ccccc3)cc2O)cc1 | inactive: 29.9%
31 | CCC(C)NC(=S)N1CCN(Cc2ccccc2)CC1 (stereo not drawn) | inactive: -4.88%
32 | CC(C)(C)C1CCC(=NNc2ccc(S(N)(=O)=O)cc2[N+](=O)[O-])CC1 (stereo not drawn) | inactive: -2.63%
33 | NC(=O)C1CCN(S(=O)(=O)Cc2ccccc2Cl)CC1 | inactive: -12.3%
34 | Nc1nnc(Cc2cccc(Br)c2)s1 | inactive: 15.4%
35 | CCn1c(SCc2nc3ccccc3s2)nc2cc(S(=O)(=O)N3CCOCC3)ccc21 | inactive: 19.4%
36 | COC(=O)c1cc2n(n1)CCCNC2=O | inactive: -10.9%
37 | CCN(CC)CCN1C(=O)C(=O)/C(=C(/O)c2ccc3c(c2)CC(C)O3)C1c1ccc(OC)cc1 (stereo not drawn) | inactive: 6.32%
38 | CCOC(=O)CNC(=S)N(CCCN1CCCCCC1)Cc1cccs1 | inactive: 6.74%
39 | N=c1n(CCCOc2ccccc2Cl)c2ccccc2n1CC(N)=O | inactive: 12.5%
40 | COc1ccccc1C(CCN(Cc1ccccc1)C(C)=O)c1ccco1 (stereo not drawn) | inactive: -24.5%
41 | CCN(CC(=O)Nc1ccccc1OC)Cc1csc(CC(=O)Nc2ccc(C)cc2)n1 | inactive: -2.25%
42 | C=CCn1c(SCC(=O)O)nc2sc(CC)cc2c1=O | inactive: 8.8%
43 | Cc1sc2nc(SCC(=O)NCCOCCO)nc(N)c2c1C | inactive: -1.42%
44 | CC(C(=O)OCC(=O)c1ccc(F)cc1)N1C(=O)C2C3C=CC(C3)C2C1=O (stereo not drawn) | inactive: 7.09%
45 | COc1cc2cc(CN(CCc3cccc(C)c3)C(=S)NCCCN3CCOCC3)c(=O)[nH]c2cc1OC | inactive: 11.6%
46 | COc1ccc(NC(=O)c2cnc(NS(=O)(=O)c3ccccc3)nc2)cc1 | inactive: 7.43%
47 | CC(=O)N1CCN(S(=O)(=O)c2cccc(C(=O)NNC(=O)COc3c(C)cccc3C)c2)CC1 | inactive: 7.55%
48 | CCOC(=O)CSc1nc2ccsc2c(=O)[nH]1 | inactive: 1.14%
49 | Cc1ccc(S(=O)(=O)/C(C#N)=C/c2ccccc2OCc2ccccc2)cc1 | inactive: 13.4%
50 | O=C(CNCc1cccs1)Nc1ccc(S(=O)(=O)N2CCCCC2)cc1 | inactive: -0.685%
51 | CCOC(=O)NC(=O)/C(C#N)=C\Nc1ccc(Cl)cc1Cl | inactive: 2.99%
52 | COc1ccc(C(=O)CC(=O)C(=O)Nc2cc(OC)ccc2OC)cc1 | inactive: -5.83%
53 | CC(=O)OCCn1c(C)[n+](CCOC(C)=O)c2cc(Cl)c(Cl)cc21 | inactive: -14.2%
